According to US20160108110A1 (Novartis, published 2016):
Values joined by “and” are separate entries in the source; they are usually repeats but may differ in a detail not shown here. Equal values may be shown once. Values belong to the binder of their own block, whether it stands above or below them.

Columns and labels:
[1] = molecular target: T1, Human ANGPTL4(26-406)-FLAG-His6-Avi (human, UniProt Q9BY76 24-406, biotin on the C-terminal Avi tag in the biotinylated preparations (immobilised form in SET, ELISA and Octet)); experiment: SET assay (solution equilibrium titration, MSD), IgG
T1 construct: also called full-length human ANGPTL4; hANGPTL4
T1 sequence: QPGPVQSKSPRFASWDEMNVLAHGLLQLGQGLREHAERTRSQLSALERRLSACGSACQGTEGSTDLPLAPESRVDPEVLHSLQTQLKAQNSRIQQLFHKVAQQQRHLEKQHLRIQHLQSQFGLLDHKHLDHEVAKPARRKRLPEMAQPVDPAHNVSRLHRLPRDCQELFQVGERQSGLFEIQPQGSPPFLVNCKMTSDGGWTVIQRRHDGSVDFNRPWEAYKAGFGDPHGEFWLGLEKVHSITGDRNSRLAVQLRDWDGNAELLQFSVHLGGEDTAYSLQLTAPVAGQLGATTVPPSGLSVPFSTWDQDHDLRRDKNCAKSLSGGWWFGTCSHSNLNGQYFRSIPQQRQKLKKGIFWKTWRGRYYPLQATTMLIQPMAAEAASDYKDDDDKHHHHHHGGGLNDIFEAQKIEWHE
Description: SET assays were performed as follows. In a 96-well polypropylene plate, a constant concentration of ANGPTL4 antibody was mixed with different concentrations of non-biotinylated human, cyno, mouse, or rat full-length ANPGLT4 protein, or human ANGPTL4 N-terminal domain protein (5-fold serial dilution) and incubated at 22° C. for 14 hours with constant shaking (300 rpm). On a pre-blocked 384-well streptavidin-coated Meso Scale Discovery (MSD) plate biotinylated ANGPTL4 (full-length human, cyno, mouse, or rat ANGPTL4, or human ANGPTL4 N-terminal domain) protein (1 nM, 15 μL per well) was immobilized and washed thereafter.
The equilibrium binding reactions (15 μL per well) were applied to the MSD plate with immobilized ANGPTL4 and incubated for 20 min at 22° C. The unbound material was removed by washing the plate 3 times with wash buffer, and the captured antibody was detected by adding Sulfo-tagged goat anti-human IgG (Meso Scale Discovery). After washing MSD read buffer T was added and the plate was developed using a Sector Imager 6000 (Meso Scale Discovery). The data were transferred to Microsoft Excel for analysis and plotted using GraphPad Prism v6. The KD values were determined by fitting the data to the following equation: […]

[2] = molecular target: T1, Human ANGPTL4(26-406)-FLAG-His6-Avi; experiment: cell-based or functional assay
[3] = molecular target: T1, Human ANGPTL4(26-406)-FLAG-His6-Avi; experiment: ForteBio Octet kinetic binding assay; Average KD of the replicates
[4] = molecular target: T2, Mouse ANGPTL4(26-410)-FLAG-His6-Avi (mouse, UniProt Q9Z1P8 24-410, biotin on the C-terminal Avi tag in the immobilised form); experiment: as above
T2 sequence: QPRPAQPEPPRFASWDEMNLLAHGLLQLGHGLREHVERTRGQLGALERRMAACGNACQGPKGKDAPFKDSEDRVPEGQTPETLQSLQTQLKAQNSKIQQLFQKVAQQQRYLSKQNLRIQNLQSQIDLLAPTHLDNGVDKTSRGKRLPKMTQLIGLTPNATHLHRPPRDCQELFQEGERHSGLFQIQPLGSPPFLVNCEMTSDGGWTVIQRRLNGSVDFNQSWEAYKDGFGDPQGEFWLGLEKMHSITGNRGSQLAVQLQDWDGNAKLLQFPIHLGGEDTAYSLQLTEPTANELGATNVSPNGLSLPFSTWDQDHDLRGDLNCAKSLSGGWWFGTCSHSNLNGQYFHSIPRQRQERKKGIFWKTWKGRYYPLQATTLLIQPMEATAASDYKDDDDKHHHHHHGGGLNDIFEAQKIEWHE

[5] = molecular target: T3, Rat ANGPTL4(24-405)-FLAG-His6-Avi (rat, UniProt Q6TMA8 24-405, biotin on the C-terminal Avi tag (Octet)); experiment: as above
T3 sequence: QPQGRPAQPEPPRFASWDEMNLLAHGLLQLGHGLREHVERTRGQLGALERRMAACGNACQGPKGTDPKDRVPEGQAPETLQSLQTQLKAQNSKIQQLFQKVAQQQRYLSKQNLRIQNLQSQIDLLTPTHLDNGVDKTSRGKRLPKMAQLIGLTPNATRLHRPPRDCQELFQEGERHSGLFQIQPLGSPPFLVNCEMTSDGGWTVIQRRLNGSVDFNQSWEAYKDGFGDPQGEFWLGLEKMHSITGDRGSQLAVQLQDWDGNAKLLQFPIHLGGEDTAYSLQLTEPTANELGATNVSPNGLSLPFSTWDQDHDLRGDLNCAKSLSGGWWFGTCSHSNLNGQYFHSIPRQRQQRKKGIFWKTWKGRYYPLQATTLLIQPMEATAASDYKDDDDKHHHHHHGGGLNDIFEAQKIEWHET

[6] = molecular target: T4, Cynomolgus monkey ANGPTL4(26-406)-FLAG-His6-Avi (cynomolgus monkey, biotin on the C-terminal Avi tag (Octet)); experiment: as above
T4 construct: also called Cyno ANGPTL4 (26-406)
T4 chain: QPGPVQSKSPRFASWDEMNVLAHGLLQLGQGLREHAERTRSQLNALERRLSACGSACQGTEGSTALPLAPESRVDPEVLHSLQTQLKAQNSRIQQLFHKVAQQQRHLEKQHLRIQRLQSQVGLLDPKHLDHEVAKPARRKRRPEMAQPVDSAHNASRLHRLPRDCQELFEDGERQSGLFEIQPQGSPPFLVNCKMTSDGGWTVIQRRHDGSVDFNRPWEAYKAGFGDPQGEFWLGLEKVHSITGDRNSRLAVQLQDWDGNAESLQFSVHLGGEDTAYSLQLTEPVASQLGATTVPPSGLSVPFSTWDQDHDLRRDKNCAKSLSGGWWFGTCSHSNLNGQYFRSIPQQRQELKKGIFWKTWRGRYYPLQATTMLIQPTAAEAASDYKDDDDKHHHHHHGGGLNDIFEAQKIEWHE

[7] = molecular target: T1, Human ANGPTL4(26-406)-FLAG-His6-Avi; experiment: ForteBio Octet kinetic binding assay
[8] = molecular target: T2, Mouse ANGPTL4(26-410)-FLAG-His6-Avi; experiment: ForteBio Octet kinetic binding assay
[9] = molecular target: T3, Rat ANGPTL4(24-405)-FLAG-His6-Avi; experiment: ForteBio Octet kinetic binding assay
[10] = molecular target: T4, Cynomolgus monkey …; experiment: ForteBio Octet kinetic binding assay
[11] = molecular target: T5, Human ANGPTL3(17-460)-FLAG-His-Avi (human, UniProt Q9Y5C1 17-460, biotin on the C-terminal Avi tag); experiment: ForteBio Octet kinetic binding assay; Average KD
T5 construct: also called full length human ANGPTL3; hANGPTL3
T5 sequence: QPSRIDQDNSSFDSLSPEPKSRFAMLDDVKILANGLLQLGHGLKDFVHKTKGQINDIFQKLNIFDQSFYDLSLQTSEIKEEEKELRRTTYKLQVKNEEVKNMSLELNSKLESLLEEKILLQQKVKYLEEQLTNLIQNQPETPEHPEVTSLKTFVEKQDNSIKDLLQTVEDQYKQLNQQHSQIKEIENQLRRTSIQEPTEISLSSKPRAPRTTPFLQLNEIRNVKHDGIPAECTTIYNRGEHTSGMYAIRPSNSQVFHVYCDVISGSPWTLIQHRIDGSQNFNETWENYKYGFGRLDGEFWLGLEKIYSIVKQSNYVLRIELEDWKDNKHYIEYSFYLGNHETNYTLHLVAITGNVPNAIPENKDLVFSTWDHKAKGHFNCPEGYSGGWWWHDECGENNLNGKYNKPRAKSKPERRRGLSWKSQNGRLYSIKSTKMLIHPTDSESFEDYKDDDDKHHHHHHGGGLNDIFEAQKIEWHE

Cyno ANGPTL3 (17-460) = molecular target: T6, Cyno ANGPTL3 (17-460) (cynomolgus monkey, UniProt A0A2K5UDC5 17-460); experiment: ForteBio Octet kinetic binding assay; Average KD
T6 construct: range 17-460; preparation not described
T6 sequence: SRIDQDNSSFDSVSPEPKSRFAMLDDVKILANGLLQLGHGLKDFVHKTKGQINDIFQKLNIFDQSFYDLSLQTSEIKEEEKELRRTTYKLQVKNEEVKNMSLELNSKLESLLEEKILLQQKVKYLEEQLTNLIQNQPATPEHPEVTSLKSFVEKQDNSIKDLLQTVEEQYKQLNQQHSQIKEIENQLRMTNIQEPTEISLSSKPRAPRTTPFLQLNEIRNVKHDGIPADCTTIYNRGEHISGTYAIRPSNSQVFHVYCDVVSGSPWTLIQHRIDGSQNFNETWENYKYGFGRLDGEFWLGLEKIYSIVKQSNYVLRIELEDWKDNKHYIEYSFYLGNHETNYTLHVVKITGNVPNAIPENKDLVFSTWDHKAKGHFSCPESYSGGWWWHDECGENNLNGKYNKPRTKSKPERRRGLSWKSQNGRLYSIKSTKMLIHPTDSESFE

Kd [1]: 0.017 nM
Reversal of human ANGPTL4 inhibition of human LPL EC50 [2]: 4 nM
B1: MOR022770 (antibody, human IgG1, kappa)
heavy: EVQLLESGGGLVQPGGSLRLSCAASGFTFSSYWMHWVRQAPGKGLEWVSGISYEGSSTNYADSVKGRFTISRDNSKNTLYLQMNSLRAEDTAVYYCARDSYIYDLHWGFDNWGQGTLVTVSSASTKGPSVFPLAPSSKSTSGGTAALGCLVKDYFPEPVTVSWNSGALTSGVHTFPAVLQSSGLYSLSSVVTVPSSSLGTQTYICNVNHKPSNTKVDKRV[gap - human IgG1 Fc]
light: DIQMTQSPSSLSASVGDRVTITCRASQDISSYLNWYQQKPGKAPKLLIYAASRLQSGVPSRFSGSGSGTDFTLTISSLQPEDFATYYCQQSYTHPYTFGQGTKVEIKRTVAAPSVFIFPPSDEQLKSGTASVVCLLNNFYPREAKVQWKVDNALQSGNSQESVTEQDSKDSTYSLSSTLTLSKADYEKHKVYACEVTHQGLSSPVTKSFNRGEC
notes: human IgG1

Kd [3]: 0.117 nM
Kd [4]: 0.726 nM
Kd [5]: 0.456 nM
Kd [6]: 0.174 nM
Kd [7]: 0.159 nM and 0.076 nM and 0.13 nM and 0.103 nM
koff [7]: 3e-05 s⁻¹ and 1.4e-05 s⁻¹ and 2.5e-05 s⁻¹ and 2.9e-05 s⁻¹
kon [7]: 180000 M⁻¹ s⁻¹ and 190000 M⁻¹ s⁻¹ and 280000 M⁻¹ s⁻¹
Kd [8]: 0.994 nM and 0.458 nM
koff [8]: 6.1e-05 s⁻¹ and 0.00014 s⁻¹
kon [8]: 130000 M⁻¹ s⁻¹ and 140000 M⁻¹ s⁻¹
Kd [9]: 0.405 nM and 0.427 nM and 0.537 nM
koff [9]: 3.1e-05 s⁻¹ and 3.4e-05 s⁻¹ and 2.8e-05 s⁻¹
kon [9]: 77000 M⁻¹ s⁻¹ and 79000 M⁻¹ s⁻¹ and 52000 M⁻¹ s⁻¹
Kd [10]: 0.235 nM and 0.112 nM
koff [10]: 4.7e-05 s⁻¹ and 2.2e-05 s⁻¹
kon [10]: 300000 M⁻¹ s⁻¹ and 200000 M⁻¹ s⁻¹
Kd [11]: > 5 nM
Kd (Cyno ANGPTL3 (17-460)): > 5 nM
Kd [1]: 0.022 nM
Reversal of human ANGPTL4 inhibition of human LPL EC50 [2]: 1 nM
B2: MOR022770-LALA (antibody, human IgG1, kappa)
heavy: EVQLLESGGGLVQPGGSLRLSCAASGFTFSSYWMHWVRQAPGKGLEWVSGISYEGSSTNYADSVKGRFTISRDNSKNTLYLQMNSLRAEDTAVYYCARDSYIYDLHWGFDNWGQGTLVTVSSASTKGPSVFPLAPSSKSTSGGTAALGCLVKDYFPEPVTVSWNSGALTSGVHTFPAVLQSSGLYSLSSVVTVPSSSLGTQTYICNVNHKPSNTKVDKRV[gap - human IgG1 Fc with changes]
light: B1 light
notes: also called MOR22770-LALA; MOR02770-LALA
